# The campaign covered roughly 150,000 compounds. About 540 (0.36%) showed an effect of 50% or more. The list shows a part of the results.
# System: Plasmodium falciparum
# Assay: Primary screen in NF54 nanoGlo assay, in single point, at 2uM, 72h; a lower Z score goes with more inhibition
# Type: functional, Erythrocyte
# Details: timepoint 72 hour
Structure (SMILES),% Inhibition [%],Z score
Cc1nccn1[C@@H](C)CC(=O)N(C)CCn1ccnc1,-15,1.9
Cc1cccc2c1CC(C)(C)N(C(=O)Cc1ccc(C(N)=O)cc1)C2,-2,0.4
Cc1ccc(C(=O)N2CC[C@H]3[C@@H](C2)NC(=O)N3C)c(C)c1,4,-0.62
CCNC(=O)C[C@H]1CCCCN1C(=O)C1CCN(Cc2csc(C)n2)CC1,42,-1.59
COc1ccccc1CN1C(=O)c2cc3occc3n2C[C@@]1(C)C(=O)NC1CCC(C)CC1 (stereo not given in full),-18,3.16
CCc1c(C)nn(C)c1NC(=O)CCn1nnnc1C,-2,0.15
Cc1nn(C)cc1CN1CCC[C@H](c2nncn2C(C)C)C1,-7,0.71
Cc1sc(S(=O)(=O)N2CCCCCC2)cc1NC(=O)c1cccc(C(F)(F)F)c1,0,0.02
CCc1cccc(NC(=O)CN(CC)CC#N)c1,-4,0.65
O=C(CN1C(=O)N[C@]2(CCc3ccccc3C2)C1=O)NC1CC1,-10,1.85
COc1cccc(F)c1C(=O)N[C@H]1CC[C@@H]2CCC[C@@H]21,-18,1.8
COc1cc(Cn2ccnc2-c2cnc(N)nc2)cc(OC)c1OC,14,-1.77
CCc1nc(C2CC2)nc(N2CCN(C(=O)c3cccs3)CC2)c1Cc1cccc(Cl)c1,-4,0.48
O=C(C1CCN(C2CCN(CCCC3CCCC3)CC2)CC1)N1CCOCC1,-1,0.15
CS(=O)(=O)Cc1cc(F)ccc1N,0,-0.04
O=C1[C@@H]2CCCCN2C(=O)N1c1c(F)cccc1F,-1,0.1
O=C(Cn1cc([C@@H](O)C2CC2)nn1)C1(c2ccccc2)CC1,-5,0.86
CCc1ncc(CN[C@H]2CCCc3nc(N4CCC(CO)CC4)ncc32)cn1,-11,1.66
O=C(NC1CCN2CCCCC12)c1cccc(F)c1 (stereo not given),-8,1.02
Cn1ccc(CCNS(=O)(=O)C2CCC(c3ccccc3)CC2)n1 (stereo not given),-8,1.03
CCC(C)(C)N(C)C(=O)c1ccccc1Cl,31,-4.21
O=C(CCC1CCCCC1)Nc1ccc2c(c1)OCO2,-7,1.07

Structure (SMILES),% Inhibition [%],Z score
COc1cc2c(cc1OC)CN(C(=O)COc1nnc3ccccn13)CC2,-2,0.17
O=C(Nc1ccc(O)cc1)Nc1cccc(-c2ncco2)c1,5,-0.61
CN1CCC2(CC1)CC(=O)N(Cc1ccc(F)c(F)c1)C2,-18,1.68
O=c1[nH]c(-c2ccccc2)nc2c1CCCC2,-2,0.23
COc1cccc(OCc2nc(C3CCOCC3)n(C3CCCCC3)n2)c1,-5,0.52
CC(C)Cc1cn(C2CCN(C3CCCCCC3)CC2)nn1,-4,0.76
CS(=O)(=O)N(CCOCC(F)(F)F)c1ccc(Cl)cc1F,0,-0.01
COC(=O)C1=C(C(=O)OC)SC(=C2C(=S)C(C)(C)N(C(=O)CN3C(=O)CCC3=O)c3cc(OC)ccc32)S1,6,-0.71
Cc1cccc(C(=O)NC[C@H]2CCN(c3cnn(C)c(=O)c3)C2)c1O,1,-0.14
CCN(CC)CCCNC(=O)c1ccc2ccnc(N3CCN(c4ccccc4F)CC3)c2c1,-2,0.21
CCCN1C[C@@H]2CC[C@H]1CN(Cc1c[nH]nc1-c1cccc(F)c1)C2,1,-0.17
CC1CC(NCc2cnc(C3CC3)nc2)C1 (stereo not given),-6,0.61
O=C(N1CCCC1)C1(F)CCN(Cc2cccnc2)CC1,-11,1.38
Cc1nn(C)c2nc(O[C@@H](C)C(=O)NC3CC3)cc(C(F)(F)F)c12,-8,0.86
Cn1cc([C@@](C)(O)CNc2nccnc2C#N)cn1,8,-1.15
CCN(C(=O)c1ccoc1C)c1ccccc1C,-5,0.62
O=C(NCCCN1CCCC1)c1ccc(CN2C(=O)CCn3nc(-c4cccc(Cl)c4)cc32)cc1,32,-3.75
CN(C)[C@@H](CNS(=O)(=O)N(C)C)c1ccc(Cl)cc1,-2,0.22
O=C(Nc1nnc2ccccn12)[C@H]1CC(=O)N(Cc2cccc(C(F)(F)F)c2)C1,-7,0.96
CCOc1ccc(C(=O)N2CCN=C2N2CCC(C)CC2)cc1,-11,1.03
CC(C)(C)OC(=O)NOC(C)(C)COC(=O)C[C@@H]1COC(=O)C1,1,-0.11
Cc1ccc(CN(C(=O)c2oc3cc(C)c(C)cc3c2C)c2ccccn2)o1,15,-1.72

Structure (SMILES),% Inhibition [%],Z score
O=C(NCc1ccncc1)c1nnn2c1c(=O)[nH]c1ccccc12,-3,0.66
FC(F)c1nnc2ccc(N3CCCN(c4ccncc4)CC3)nn12,-4,0.49
Cc1nc2ccccn2c1CNC(=O)[C@@H]1CCCn2nccc21,-14,2.4
CC1CN(C(=O)CN2CCNCC2=O)CC(c2ccc(F)cc2)O1 (stereo not given),5,-0.78
Cc1cccnc1CN1C[C@@H](F)[C@@H](OCc2nc3ncccc3[nH]2)C1,-5,0.82
CC1=C(C)CN(S(=O)(=O)CC2C[C@@H]3COC[C@@H]3O2)CC1 (stereo not given in full),6,-0.7
Cn1ccnc1[C@@H]1CCCN1Cc1nccn1Cc1ccccc1,50,-4.75
O=C(CCCCN1C(=O)c2ccccc2C1=O)Nc1nc(-c2ccccc2)cs1,-19,2.03
C[C@H](NC(=O)CN1CCc2nn[nH]c2C1)c1cccs1,-7,0.71
O=C(O)[C@H](Cc1ccc(O)cc1)NC1CCN(c2ccc(F)c(F)c2)CC1,-3,0.58
Cc1nc(C#N)c(NC[C@@H](c2cccs2)N(C)C)o1,-7,0.99
COc1ccc2c(c1F)CC[C@@H]2NCc1cnc(C)cc1C,-11,1.5
CN(C(=O)CCc1cn2ccccc2n1)[C@H]1CCN(Cc2ccccc2)C1,0,0.02
O=C(CCc1cn[nH]c1)N[C@H]1COCC[C@@H]1O,-18,1.93
COC(=O)C1CC(Oc2ccccc2F)CN1S(=O)(=O)c1cccnc1 (stereo not given),-13,2.45
C[C@H]1CCc2ccccc2N1Cc1nc(-c2ccsc2)no1,1,-0.07
CC(C)C1=NN([C@H]2CCCC[C@@H]2O)C(=O)C1,-5,1.04
CC(C)c1nccc(C(=O)N(C)C[C@H](C)CN2CCCC2)n1,2,-0.34
CN1C(=O)[C@@H]2CC[C@H]1CN(C(=O)Cn1c(C3CC3)nc3ccccc31)C2,1,-0.2
Cc1cc(C(=O)N2CC[C@@]3(CCCN(Cc4ccccc4F)C3=O)C2)n[nH]1,-17,1.52
COc1ccc(Cl)cc1-c1nc([C@H]2CC(=O)N(c3ccc(F)cc3)C2)no1,-10,0.89
COc1ccccc1NC(=O)c1cc(C)n2nccc2n1,1,-0.17

Structure (SMILES),% Inhibition [%],Z score
CC1CC(NCCc2ccccc2F)CN1Cc1ccccc1 (stereo not given),-14,1.2
CCc1cnc(N2CC[C@@H]3OCc4cccc(c4)Oc4cc(ccc4OC)C(=O)N(CCCO)CC(=O)N[C@H]3C2)nc1,-19,3.53
O=C(CN1C(=O)COc2ccc(Cl)cc21)NCCn1ccnc1,-1,0.21
CN(C)C(=O)C1C[C@@H]2OCC[C@@H]2N1C(=O)CCc1ccccc1O (stereo not given in full),10,-1.64
COc1cc(F)c([C@H](C)NCc2ocnc2C)cc1OC,16,-2
Cc1ccnc(N2CCC[C@H]2C(C)(C)O)n1,-8,1.17
O=C(CCC1(Cc2ccccc2)CCC(=O)N1)N[C@H]1CCCCNC1=O (stereo not given in full),2,-0.23
Cc1ccc(OCCN2CCN(CC(=O)N3CCCc4ccccc43)CC2)cc1,-10,1.34
c1nc(CN2CCC(=C3CC3)CC2)no1,-9,1.5
Cc1nc(NCCN2CCCC[C@@H]2CO)c2ccsc2n1,-13,2.05
CCCOCC(=O)NC[C@H](Cc1ccc(C)cc1)C(=O)O,22,-2.6
Fc1ccc(CNC[C@H]2Cn3ccnc3CO2)cc1F,26,-2.89
Cc1ccc(-n2cc(C3CCN(C(=O)OC(C)(C)C)CC3)c(C(=O)Nc3ccc(F)cc3)n2)c(C)c1,12,-1.39
COc1ccc(S(=O)(=O)N2CC(=O)N(C3CCCC3)C3(CCCCC3)C2)cc1OC,-10,1.54
Cc1cc(C)n(CC(=O)N(CCS(C)(=O)=O)C(C)(C)C)n1,-8,0.93
C[C@@H](CN1CCN(c2ccccc2)CC1)NC(=O)c1ccc[nH]1,-6,1.1
COc1ccc(OC2CCN(C(C)=O)CC2)c(C(=O)N(C)CCc2ncon2)c1,-3,0.71
CS(=O)(=O)c1ccc(C(F)(F)F)cc1N,5,-0.68
C[C@@]1(C(=O)N2CCN(c3ccccc3F)CC2)Oc2cccnc2NC1=O,-6,1.07

# From ChEMBL document CHEMBL4888484, “Replenishing the malaria drug discovery pipeline: Screening and hit evaluation of the MMV Hit Generation Library 1 (HGL1) against asexual blood stage Plasmodium falciparum ,using a nano luciferase reporter read-out” (2022)
